Experimental findings from PMC4336329 (PLoS ONE, 2015) are described below.

Screen size: about 310,000 compounds; about 14,000 (4.5%) showed an effect of 50% or more. Effects have a minus sign here. The list shows a part of the results.
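Note: peak tail current of the secondary pulse compared with the same well before compound.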

The target of the assay is human ether-à-go-go-related gene (hERG) potassium channel (human, UniProt Q12809). Nature of the assay: primary screen, population patch clamp on CHO cells stably expressing hERG.
Chain of human ether-à-go-go-related gene (hERG) potassium channel (Q12809 whole entry, looked up): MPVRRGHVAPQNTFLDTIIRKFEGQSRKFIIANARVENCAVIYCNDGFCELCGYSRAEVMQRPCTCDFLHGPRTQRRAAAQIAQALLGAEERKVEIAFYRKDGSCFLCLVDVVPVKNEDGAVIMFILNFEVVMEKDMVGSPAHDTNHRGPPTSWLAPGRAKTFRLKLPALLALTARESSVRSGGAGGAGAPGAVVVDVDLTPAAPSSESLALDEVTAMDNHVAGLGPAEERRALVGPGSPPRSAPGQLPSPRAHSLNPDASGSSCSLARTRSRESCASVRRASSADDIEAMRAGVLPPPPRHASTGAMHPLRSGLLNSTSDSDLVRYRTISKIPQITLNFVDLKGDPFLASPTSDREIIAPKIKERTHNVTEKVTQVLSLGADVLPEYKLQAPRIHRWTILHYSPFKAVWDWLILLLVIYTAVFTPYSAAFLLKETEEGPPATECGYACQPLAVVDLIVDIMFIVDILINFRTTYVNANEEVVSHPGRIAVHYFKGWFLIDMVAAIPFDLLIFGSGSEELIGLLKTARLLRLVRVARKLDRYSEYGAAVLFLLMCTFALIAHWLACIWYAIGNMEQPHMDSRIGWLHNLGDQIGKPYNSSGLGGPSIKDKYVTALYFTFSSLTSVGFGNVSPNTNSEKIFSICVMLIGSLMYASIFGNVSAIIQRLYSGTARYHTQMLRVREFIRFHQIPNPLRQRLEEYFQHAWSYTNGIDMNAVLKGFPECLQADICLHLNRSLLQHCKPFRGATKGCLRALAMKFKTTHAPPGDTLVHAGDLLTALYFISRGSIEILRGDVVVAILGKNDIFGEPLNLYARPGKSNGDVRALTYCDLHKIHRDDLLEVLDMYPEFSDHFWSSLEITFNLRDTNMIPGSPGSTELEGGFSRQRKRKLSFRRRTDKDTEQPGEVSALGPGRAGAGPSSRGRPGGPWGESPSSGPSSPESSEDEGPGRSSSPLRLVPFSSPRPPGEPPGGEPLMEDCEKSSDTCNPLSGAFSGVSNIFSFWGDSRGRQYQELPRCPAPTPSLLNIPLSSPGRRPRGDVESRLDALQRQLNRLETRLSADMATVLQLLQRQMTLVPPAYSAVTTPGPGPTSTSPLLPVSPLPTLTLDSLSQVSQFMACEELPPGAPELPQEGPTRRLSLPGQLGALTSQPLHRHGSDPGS
Regarding `COc1ccc(C)cc1NC(=O)CNC(=O)Cn1ccc2ccccc2c1=O`, the “hERG current change (%, negative = inhibition) at 10uM” value was -7.79%.
On to `O=C(CSc1nnc(CNc2ccc(F)cc2)n1Cc1ccco1)N1CCCC1`, for which the “hERG current change (%, negative = inhibition) at 10uM” value is -35.7%.
As for `COc1ccccc1N1CCN(C(=O)C2CCN(S(=O)(=O)c3ccc(C)cc3)CC2)CC1`, the figure is -19.9%; as for `CNC(=O)c1c(NC(=O)c2ccco2)sc2c1CCCC2`, -0.377%.
Regarding `Cc1ccc(C)c(C(=O)CN2Cc3ccccc3C2=O)c1`, the “hERG current change (%, negative = inhibition) at 10uM” value was 7.02%.
As for `COc1ccc(S(=O)(=O)N2CCCCC2)cc1NC(=O)CCOc1cc(C)ccc1C`, the figure is 8.59%; as for `Cc1cc(C)cc(NC(=S)NN)c1`, 1.09%; as for `Cc1cc[n+](-c2ccccc2)c2ccccc12.[Cl-]`, 76.5%.
With `O=C(NCc1cccnc1)NC1CCCCC1`, the “hERG current change (%, negative = inhibition) at 10uM” value worked out at 5.25%.
To `O=C(CCCc1nc(-c2ccc(Cl)cc2)no1)NC1CCCC1` belongs -1.19%; to `COC(=O)CS(=O)(=O)c1nnc([C@H](Cc2ccccc2)NC(=O)OC(C)(C)C)o1`, 9.11%; to `CCOc1ccc(S(=O)(=O)N2CCN(C(=O)c3ccncc3)CC2)cc1`, 4.67%.
Consider `O=C(CCl)NNc1cccc(Cl)n1`, for which the “hERG current change (%, negative = inhibition) at 10uM” value worked out at 6.28%.
As for `O=C(O)c1ccc(CNC(=O)c2ccc(S(=O)(=O)N3CCCCC3)cc2)cc1`, the figure is -1.88%; as for `Cc1cc(C(=O)N2CCN(c3ccc(F)cc3)CC2)on1`, -14.5%; as for `COc1ccc(C2CC(c3ccc(OC)cc3)n3nc(NS(C)(=O)=O)nc3N2)cc1` (centres unmarked), -10.6%.
As to `Cc1ccc(CCNc2ccccc2)c[n+]1[O-]`, the “hERG current change (%, negative = inhibition) at 10uM” value worked out at 2.22%.
In the case of `CNc1c(NS(=O)(=O)c2ccc(Cl)s2)c(=O)oc2ccccc12`, the “hERG current change (%, negative = inhibition) at 10uM” value is reported as -4.04%.
As for `Cc1ccc(Sc2ccncc2S(N)(=O)=O)cc1`, the figure is -0.5%; as for `CCc1ccc([C@@H]2CC=C(C(=O)O)[C@H](c3cccc(Cl)c3)N2S(=O)(=O)c2ccc(C)cc2)cc1`, 15.2%.
Consider `COc1ccc2cc(C(=O)N3CCN(Cc4ccc5c(c4)OCO5)CC3)[nH]c2c1`, for which the “hERG current change (%, negative = inhibition) at 10uM” value is listed as -8.42%.
On to `COc1ccc(CNC(=O)c2cc3cccc(O)c3oc2=N)cc1`, for which the “hERG current change (%, negative = inhibition) at 10uM” value was 12%.
As for `CCS(=O)(=O)c1ccc2oc(SCC(=O)NC34CC5CC(CC(C5)C3)C4)nc2c1`, the figure is -33.7%; as for `Cc1ccc(S(=O)(=O)Oc2cccc(/C=N/Nc3ccc(C(=O)O)cc3)c2)cc1`, 5.85%.
Take `CC(=O)c1ccc(NC(=O)Cn2nc(C)c([N+](=O)[O-])c2C)cc1`: the “hERG current change (%, negative = inhibition) at 10uM” value was determined as 1.05%.
To `CCOP(=O)(c1c(F)c(F)c(F)c(F)c1F)C1(O)CCCCC1` (centres unmarked) belongs 2.73%; to `Cl.c1ccc(-c2nc(NCC3CCCO3)c3oc4ccccc4c3n2)cc1` (centres unmarked), -9.67%.
As for `Cc1ccc(NC(=O)C2CC(=O)N(CCc3ccccc3)C2)c(C)c1` (centres unmarked), the figure is 9.44%; as for `CC(C)(C)n1nnnc1C(c1cccs1)N(Cc1ccc(Cl)cc1)CC1CCCO1` (centres unmarked), -9.8%.
As for `COCC(C)n1c(SCC(=O)NC(=O)NC2CCCC2)nc2ccccc2c1=O` (centres unmarked), the figure is -30.7%.
In the case of `O=C(NCC1OCCc2ccccc21)c1ccc(NC(=O)c2ccc(Cl)cc2Cl)cc1` (centres unmarked), the “hERG current change (%, negative = inhibition) at 10uM” value was 6.4%.
On to `COc1nc(NCCN2CCOCC2)nc(Nc2ccccc2)n1`, for which the “hERG current change (%, negative = inhibition) at 10uM” value is -50.5%.
Regarding `CNC(C)C#Cc1ccc2oc3cc(C)c(C)cc3c(=O)c2c1` (centres unmarked), the “hERG current change (%, negative = inhibition) at 10uM” value came to 9.45%.
To `Clc1cccc(-c2nnc(-c3ccccc3)o2)c1` belongs 1.17%.
To `Cc1ccc(C(=O)N2CCC3(CC2)Oc2ccc(Cl)cc2C(=O)C32CC(c3cccnc3)=NO2)s1` (centres unmarked) belongs -9.25%; to `CCOC(=O)C1CCN(c2ncnc3c2cnn3-c2ccccc2)CC1`, -35.7%.
As to `O=C(NCc1ccco1)C1CCN(S(=O)(=O)N2CCOCC2)CC1`, the “hERG current change (%, negative = inhibition) at 10uM” value was -13.1%.
To `O=[N+]([O-])c1cccc(S(=O)(=O)NCCOc2cccc3cccnc23)c1` belongs -1.85%; to `Cc1noc(C)c1COC(=O)[C@@H](NC(=O)c1ccccc1Cl)C(C)C`, 5.09%; to `CCc1ccc(OC(C)C(=O)Nc2ccc(S(=O)(=O)Nc3cc(C)on3)cc2)cc1` (centres unmarked), 9.94%.
As to `Cc1ccc2c(CC(=O)NCC(C)(C)N3CCOCC3)coc2c1`, the “hERG current change (%, negative = inhibition) at 10uM” value is recorded as 5.75%.
Regarding `CC(C)C(=O)NCCCc1ccccc1`, the “hERG current change (%, negative = inhibition) at 10uM” value came to 10.3%.
`Cc1ccc(C(=O)N/C(=C/c2ccc(-c3cccc([N+](=O)[O-])c3)o2)C(=O)NC(C)(C)C)cc1`: the “hERG current change (%, negative = inhibition) at 10uM” value was -21.9%.
Regarding `CCOc1cnn(Cc2ccccc2)c(=O)c1SCc1ccccc1`, the “hERG current change (%, negative = inhibition) at 10uM” value was -30.1%.
As for `Cc1ccc(-c2nnn(CC(=O)N(c3ccccc3)C(C(=O)NC3CCCC3)c3ccncc3)n2)o1` (centres unmarked), the figure is -10.6%; as for `O=C(c1ccc(-c2cc(Cl)ccc2Cl)o1)N1CCOCC1`, -41.8%.
For `O=C(NC(Cc1c[nH]c2ccccc12)C(=O)O)/C(=C/c1ccc(F)cc1)NC(=O)c1ccccc1` (centres unmarked), the “hERG current change (%, negative = inhibition) at 10uM” value is on record as 2.17%.
As for `N#CC1(c2ccccc2)CCN(S(=O)(=O)c2ccc(OC(F)(F)F)cc2)CC1`, the figure is 9.34%; as for `COc1ccc(S(=O)(=O)N2CCC(C(=O)N[C@H](C(=O)N3CCCC3)C(C)C)CC2)cc1`, 10.8%; as for `COc1cc(C(C(=O)Nc2c(C)cccc2C)N(C)C(=O)c2ccc(-n3cnnn3)cc2)ccc1O` (centres unmarked), -67.7%.
To `Nc1nc(Cl)nc2c1ncn2C1CC(O)C(CO)O1` (centres unmarked) belongs 3.7%; to `CC1CCN(C(=O)C2CCC(CNS(=O)(=O)c3cccc4cccnc34)CC2)CC1` (centres unmarked), 2.51%.
`O=C(NCCN1CCOCC1)c1ccc(Cl)c(S(=O)(=O)N2CCCC2)c1`: the “hERG current change (%, negative = inhibition) at 10uM” value is -0.109%.
As for `Cc1c(Cl)cccc1NC(=O)c1cccc(OC(F)F)c1`, the figure is -31.1%; as for `Nc1nc(SCC(=O)NCCc2ccccc2)[nH]c(=O)c1-c1ccccc1`, 15.9%.
As for `Cc1ccc(Oc2ncnc(N)c2[N+](=O)[O-])cc1C`, the figure is 31.8%; as for `CCC(C)N(C(=O)CSc1ncnc2c1cnn2-c1ccccc1)C1CCS(=O)(=O)C1` (centres unmarked), -9.61%.
For the compound `COc1ccc(C(=O)Nc2nc3ccc(S(C)(=O)=O)cc3s2)cc1`, the “hERG current change (%, negative = inhibition) at 10uM” value is given as 11.1%.
As for `CC1(C)CC(CC(=O)NNc2nc(-c3ccccc3)cs2)C(=O)O1` (centres unmarked), the figure is -2.28%; as for `CCCCCC1CCC(c2n[nH]c(=S)n2C)CC1` (centres unmarked), 10.9%; as for `COc1ccc(CSc2nc(C)cc(=O)[nH]2)cc1Br`, 13.3%.
As for `COc1ccc(C(=O)OCC(=O)Nc2ccc([N+](=O)[O-])cc2OC)c(O)c1`, the figure is -15.3%; as for `O=C1c2ccccc2C(=O)N1CC(=O)N1c2ccccc2Sc2ccc(C(F)(F)F)cc21`, -1.52%.
As for `CCN(C1CCCCC1)S(=O)(=O)c1ccc(S(=O)(=O)N(CC(=O)Nc2ccccc2)C2CC2)cc1`, the figure is -1.91%.
For the compound `Cc1c(C)n(Cc2ccc(Cl)cc2)c2ccc(C(=O)NCCN3CCOCC3)cc12`, the “hERG current change (%, negative = inhibition) at 10uM” value amounted to 3.57%.
To `Nc1ccc(-n2nnnc2CN2CCOCC2)cc1` belongs 3.15%.
As for `O=C1C2CCCN2C(c2ccc(F)cc2)N1c1cccc(Cl)c1` (centres unmarked), the figure is -6.29%; as for `CCCNC(=O)Nc1ccc(NC(C)=O)cc1`, -13.4%.
To `O=C(O)CCNC(=O)/C(=C\C=C\c1ccccc1)NC(=O)c1ccccc1` belongs 12.6%; to `CCCC(=O)Nc1sc(Cc2ccccc2)c(C)c1C(N)=O`, -19.7%; to `O=C(NCCCN1CCOCC1)c1ccc(Cl)c([N+](=O)[O-])c1`, -4.74%.
Turning to `Cc1ccc(-c2nc(N/N=C/c3ccncc3)c3ccccc3n2)cc1`, the “hERG current change (%, negative = inhibition) at 10uM” value is 3.06%.
To `CCc1ccc(OCCCCCn2ccnc2)cc1` belongs -4.41%.
To `OCC[C@@H]1C[C@@H](O)[C@H](O)[C@]2(OCCCc3ccccc32)O1` belongs 16.1%.
To `CCCOC(=O)CC1C(=O)NCCN1Cc1cc(OC)cc(OC)c1` (centres unmarked) belongs -26.1%.
Turning to `Nn1c(SCc2ccc(Br)cc2)nnc1-c1cccnc1`, the “hERG current change (%, negative = inhibition) at 10uM” value stood at 59.1%.
On to `CN(C)C=NC(=O)c1ccc([N+](=O)[O-])c(CS(=O)(=O)c2ccc(Cl)cc2)c1`, for which the “hERG current change (%, negative = inhibition) at 10uM” value is reported as -49.6%.
On to `COc1ccc(C(CNC(=O)c2cccc(NS(=O)(=O)c3ccccc3)c2)N(C)C)cc1` (centres unmarked), for which the “hERG current change (%, negative = inhibition) at 10uM” value is on record as -46.4%.
In the case of `Cc1ccnc(NC(c2ccsc2)c2ccc3ccc(C)nc3c2O)c1` (centres unmarked), the “hERG current change (%, negative = inhibition) at 10uM” value is recorded as -4.03%.
Consider `CCOC(=O)c1c(NC(=O)CC2SC(N)=NC2=O)sc2c1CCC(C)C2` (centres unmarked), for which the “hERG current change (%, negative = inhibition) at 10uM” value is recorded as 8.51%.
To `Cn1c(=O)cc(N2CCOCC2)[nH]c1=O` belongs -23.4%; to `Cc1c(CC(=O)NCCC(C)C)c(=O)oc2cc3c(cc12)CCC(C)(C)O3`, 20.9%; to `CCC(=O)N1CCN(c2ccc(Cl)cc2NC(=O)c2ccc([N+](=O)[O-])o2)CC1`, -21%.
To `COc1ccccc1N1CCN(C(=O)C2CCN(S(=O)(=O)c3ccc4c(c3)CC(C)N4C(=O)C3CC3)CC2)CC1` (centres unmarked) belongs -1.74%.
As for `Cc1cc2nc(SCCOC(=O)Nc3ccccc3)nc(C)c2cc1C`, the figure is -2.78%; as for `CCN(C(=O)COc1ccccc1C(=O)NCc1ccccc1)C1CCS(=O)(=O)C1` (centres unmarked), -22.1%.
